Results as given in PubChem BioAssay AID504444 (National Center for Advancing Translational Sciences (NCATS), 2011).
The whole screen tested about 360,000 compounds, of which about 7,500 (2.1%) were called active. Not shown: some 20% with an inconclusive outcome. The call rests on the fitted dose curve; in most records, active means well fitted inhibition curve with a large enough effect; inconclusive means small, poorly fitted or top-dose-only effect, or effect the other way; inactive means flat fitted curve, though single readings scatter. Only a part is listed here, and it is no random draw.

experiment: Nrf2 qHTS screen for inhibitors; settings: A549 ARE-Fluc reporter, luciferase luminescence, 18-24 h; series mostly up to 46 µM; activity change, negative = inhibition: at the top concentration; further: nearly all actives have a fitted effect of over 60% in size
Method in brief: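 A549 ARE_Fluc cells, 5000/well, 5% FBS OPTI-MEM; compounds in dose-response, 18-24 h at 37 °C/5% CO2; CellTiter-Fluor viability read (Ex 405/Em 525), then BugLite luciferase luminescence = Nrf2 activity.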
On the % scale 0 is the no-effect control and ±100 the full control effect; potency means the concentration at half of the fitted maximal effect.

Row | SMILES | activity change, negative = inhibition | Potency
1 | COc1cc(O)c(C(CC(=O)N2CCN(c3ccccc3)CC2)c2ccc3c(c2)OCO3)c(OC)c1 (centres undefined) | inactive: 1.31% | 
2 | CCC(=O)/C=C1/Sc2ccc(OC)cc2N1CCO | inactive: 0.493% | 
3 | C=CCC[C@@H](Cc1ccc(F)cc1)C(=O)OC[C@H](C)NC(=O)[C@@H](CC=C)CC(=O)N[C@@H](CO)Cc1ccccc1 | inactive: -10.9% | 
4 | COc1cc(/C=C2\SC(=O)NC2=O)ccc1Oc1ccc([N+](=O)[O-])cc1[N+](=O)[O-] | inactive: -16.9% | 
5 | CCC(C(=O)Nc1cc(F)ccc1F)n1nc(C)c2c(C)n(-c3ccc(C)cc3)nc2c1=O (centres undefined) |  | active: 23.1 µM
6 | O=[N+]([O-])c1cccc(/C([O-])=C(/C(=S)Nc2cccc3ccccc23)[n+]2ccccc2)c1 | inactive: 21.3% | 
7 | COC(=O)[C@@H]1[C@@H](C)N(Cc2ccccc2)C(=O)N[C@H]1c1cccc(C(F)(F)F)c1 | inactive: -22.9% | 
8 | CC(C)(C)S(=O)N1Cc2ccc(CO)cc2[C@H]1CCO (some centres undefined) | inactive: 3.69% | 
9 | Cc1ccc(C(=O)Nc2nnc(S(=O)(=O)N3CCOCC3)s2)cc1 | inactive: 18.1% | 
10 | CCCCCc1ccc(OCCCC[n+]2ccc(C)cc2)c(CCCCC)c1 |  | active: 10.3 µM
11 | Cc1ccc(S(=O)(=O)N2CCC(Oc3ccc(-n4cnnn4)cc3)CC2)cc1 | inactive: -19% | 
12 | COc1ccc(/C=C/c2nnc(NC(=O)CSc3ccc(C)cc3)s2)cc1 | inactive: 6.75% | 
13 | C=CCC[C@@H](Cc1ccc(F)cc1)C(=O)OC[C@H](Cc1c[nH]c2ccccc12)NC(=O)[C@H](CC=C)CC(=O)NCCO | inactive: -11.2% | 
14 | CCN1CCSc2ccc(C(=O)NCc3ccc(OC(C)C)cc3)cc21 | inactive: -8.12% | 
15 | Cc1cc(C)c(NC(=O)Cn2c(=O)c3cccn3c3ccccc32)c(C)c1 | inactive: 3.92% | 
16 | O=C(N/N=C/C=C/c1ccccc1)c1cnccn1 | inactive: 24.4% | 
17 | C=CC[C@@H](CC(=O)N(CCO)Cc1ccccc1)C(=O)N[C@@H](COC(=O)[C@@H](CC=C)CC(=O)OC(C)(C)C)Cc1c[nH]c2ccccc12 | inactive: -25.7% | 
18 | C=CC[C@@H](CC(=O)N[C@H](CO)Cc1ccccc1)C(=O)N[C@H](COC(=O)[C@@H](CC=C)CC(=O)OC(C)(C)C)Cc1ccccc1 | inactive: 1.15% | 
19 | N=c1c2c(n(Cc3ccccc3)c3c1CCC3)CCC2 |  | active: 1.46 µM
20 | COc1ccc(C)cc1NC(=O)c1ccc(NS(=O)(=O)c2c(C)noc2C)cc1 | inactive: -0.831% | 
21 | CN1C(C(=O)Nc2cccc(O)c2)=CC(c2cccs2)=NS1(=O)=O | inactive: -8.02% | 
22 | C=CCC[C@@H](Cc1ccc(F)cc1)C(=O)OC[C@@H](C)NC(=O)[C@H](CC=C)CC(=O)N(CCO)Cc1ccccc1 | inactive: -20.4% | 
23 | NC(=O)c1cc(S(=O)(=O)NCc2cccc(Br)c2)cs1 | inactive: -27.1% | 
24 | C=CCOC(=O)C1=C[C@H](c2csc3ccccc23)C[C@H](OCc2ccc(CO)cc2)O1 | inactive: -15.6% | 
